# Assay results from PMC4336329 (PLoS ONE, 2015).
# Screen size: about 310,000 compounds; about 2,200 (0.71%) showed an effect of 50% or more. The effect is printed as a negative number. This is one part of the list.
# Biological target: human ether-à-go-go-related gene (hERG) potassium channel (human, UniProt Q12809)
# Assay: primary screen, population patch clamp on CHO cells stably expressing hERG
# Sequence of human ether-à-go-go-related gene (hERG) potassium channel (Q12809 whole entry, looked up): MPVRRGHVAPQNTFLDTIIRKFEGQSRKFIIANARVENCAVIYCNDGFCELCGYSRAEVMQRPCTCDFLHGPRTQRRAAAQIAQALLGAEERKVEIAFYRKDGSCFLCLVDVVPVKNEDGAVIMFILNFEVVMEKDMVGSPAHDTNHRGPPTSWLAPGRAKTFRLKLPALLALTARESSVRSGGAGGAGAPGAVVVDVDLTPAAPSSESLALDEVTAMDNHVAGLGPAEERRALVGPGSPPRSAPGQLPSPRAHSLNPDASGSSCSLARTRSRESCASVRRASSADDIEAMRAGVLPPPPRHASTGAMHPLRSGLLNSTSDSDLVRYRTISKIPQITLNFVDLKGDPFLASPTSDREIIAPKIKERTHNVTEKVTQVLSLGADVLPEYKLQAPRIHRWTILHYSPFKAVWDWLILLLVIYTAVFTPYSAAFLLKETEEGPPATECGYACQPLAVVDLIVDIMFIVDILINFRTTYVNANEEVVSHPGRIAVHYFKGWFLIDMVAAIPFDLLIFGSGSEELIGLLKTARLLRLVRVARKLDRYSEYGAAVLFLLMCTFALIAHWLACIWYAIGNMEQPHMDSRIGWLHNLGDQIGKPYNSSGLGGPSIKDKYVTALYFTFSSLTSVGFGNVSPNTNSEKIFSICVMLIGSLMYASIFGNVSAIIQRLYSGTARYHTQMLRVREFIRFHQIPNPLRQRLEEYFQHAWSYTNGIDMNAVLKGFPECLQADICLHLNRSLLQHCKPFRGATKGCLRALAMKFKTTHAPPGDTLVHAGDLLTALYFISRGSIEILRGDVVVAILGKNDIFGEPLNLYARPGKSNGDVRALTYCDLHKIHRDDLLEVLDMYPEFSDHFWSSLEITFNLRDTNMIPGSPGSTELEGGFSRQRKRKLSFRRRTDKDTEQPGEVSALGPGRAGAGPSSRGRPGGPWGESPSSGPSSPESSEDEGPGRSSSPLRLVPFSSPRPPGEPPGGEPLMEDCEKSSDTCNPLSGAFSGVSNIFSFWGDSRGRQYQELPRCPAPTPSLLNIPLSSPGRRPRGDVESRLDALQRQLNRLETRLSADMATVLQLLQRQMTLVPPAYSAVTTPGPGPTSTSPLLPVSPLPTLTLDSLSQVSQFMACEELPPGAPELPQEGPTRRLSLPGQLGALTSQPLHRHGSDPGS
row,SMILES,"hERG current change (%, negative = inhibition) at 1uM"
1,CCCN(CC(=O)Nc1ccccc1OC)C(=O)CCC(=O)c1ccc(Cl)s1,2.48%
2,Cc1nnc(SCC(=O)Nc2ccc(S(=O)(=O)N3CCCCC3)cc2)s1,9.29%
3,c1ccc2c(c1)ncn2-c1ncnc2sc3c(c12)CCCC3,0.166%
4,CCOc1cc2[nH]c(=O)n(CCC(=O)NCCc3ccccc3)c(=O)c2cc1OCC,1.11%
5,O=C1c2ccc([N+](=O)[O-])cc2C(=O)N1CNc1ccccn1,13.9%
6,CCCCCN(C(=O)NC(=O)Nc1cccc(C)c1C)S(C)(=O)=O,14.5%
7,CCOc1cc(-c2cc(N)n[nH]2)cc(OCC)c1OCC,18.4%
8,Cn1c(=O)c(=O)n(C)c2cc(S(=O)(=O)Nc3ccc4c(c3)OCCO4)ccc21,18.9%
9,Cc1ccc([N+](=O)[O-])cc1NC(=S)NC(=O)c1ccco1,13.5%
10,COc1ccc(CCC(=O)NCc2cccc(C(F)(F)F)c2)cc1,7.14%
11,CC1CCN2c3nc4ccccn4c(=O)c3CC3(C(=O)N(C)C(=O)N(C)C3=O)C2C1 (stereo not drawn),14%
12,O=C(CSCC(=O)N1CCOCC1)Nc1nc(-c2ccc3c(c2)OCO3)cs1,5.51%
13,CN1CCN(c2ccc(S(=O)(=O)Nc3ccccc3)cc2[N+](=O)[O-])CC1,2.98%
14,Cc1ccc(-c2ccnc3c(Cl)c(C)nn23)cc1,13.3%
15,CC(C)CC(=O)Nc1ccc(S(=O)(=O)NCc2ccco2)cc1,-0.695%
16,O=c1c(-c2ccccc2)c(-c2ccccc2)oc2cc(O)cc(O)c12,9.38%
17,O=C(NC1CCN(Cc2ccccc2)CC1)C1CCN(S(=O)(=O)c2ccc(Cl)cc2)CC1,-16.9%
18,Cc1ccc(-n2ncc3c2CCCC3NC(=O)c2cnccn2)cc1C (stereo not drawn),10.3%
19,Cc1c(Cl)cccc1NC(=O)CSc1nncn1-c1cccnc1,11.4%
20,CCC(=O)NC(NC(=S)Nc1cccc2cccnc12)C(Cl)(Cl)Cl (stereo not drawn),-0.0107%
21,O=C(Nc1nc(-c2ccco2)c(-c2ccco2)s1)c1c(F)cccc1Cl,2.82%
22,COc1cc(C(=O)NNC(=O)c2n[nH]c3ccccc23)cc(OC)c1OC,-2.81%
23,CC(C)C(=O)N1CCN(CCN=Cc2c(O)n(C)c(=O)n(C)c2=O)CC1,0.286%
24,COc1ccc(Cl)cc1NC(=O)CCc1nc(-c2ccccc2F)no1,10.2%
